Experimental data taken from PubChem BioAssay AID1508624 (National Center for Advancing Translational Sciences (NCATS), 2021).
The campaign covered roughly 48,000 compounds. About 120 (0.25%) were called active. About 4% were inconclusive and are not listed. Calls follow the shape of the dose curve; as a rule, active = well fitted activation curve with a large enough effect; inconclusive = small, poorly fitted or top-dose-only effect, or another doubt; inactive = no such curve, though single readings can be large or run the other way. Some of the results follow.

Assay: Primary qHTS for Identification of Small Molecule Activators of Huntingtin-Antisense Promoter Activity; also: nearly all actives have a fitted effect of over 55% in size
Details: HEK293 HTT-AS promoter firefly luciferase reporter, 24 h; series mostly up to 57.5 µM; activity change, positive = activation: at the top concentration
In short: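 Firefly luciferase signal from promoter-reporter HEK293 cells was scaled between vehicle (0%) and zero RLU (-100%). Compounds were tested at final concentrations of up to 57.5 uM over 24 h at 37 degrees C. PTC124 at 50 uM final served as control inhibitor.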

Activity change, positive = activation, inactive:
COC(=O)c1ccccc1NC(=O)NCc1ccc2c(c1)CCN2C(=O)c1ccccc1 -31.6%
O=C1CN(C(=O)c2ccc(S(=O)(=O)N3CCCC3)cc2)C(c2ccc(F)cc2)c2cc(Br)ccc2N1 (stereo unspecified) -37.2%
CCC1CN(S(=O)(=O)c2cc(-c3cc(C)no3)ccc2OC)c2cc(Cl)ccc2O1 (stereo unspecified) -34.5%
Cc1ccc2c(c1)N(C(=O)N1CCC(C(=O)Nc3cccc(F)c3)CC1)CCO2 -27.2%
O=S(=O)(NCCc1csc2nc(-c3ccc(Cl)cc3)nn12)c1cccs1 -38.8%
COc1cc(Nc2nc3c(S(=O)(=O)c4ccccc4)nnn3c3ccc(Cl)cc23)cc(OC)c1 1.24%
O=c1c2oc3ccccc3c2n(Cc2ccccc2Cl)c(=O)n1Cc1ccc2c(c1)OCO2 -10.6%
CCc1ccccc1NC(=O)CN(c1cc(C(F)(F)F)ccc1Cl)S(=O)(=O)c1ccccc1 -49.7%
COc1ccccc1Nc1cc(C(=O)NCCCN(C)C2CCCCC2)c2ccccc2n1 -37.5%
Cc1ccc2c(c1)N(C(=O)CCC(=O)NCc1ccccc1F)CC(C)O2 (stereo unspecified) -13.5%
O=C(COc1ccc(Cl)cc1)OCc1cc(=O)n2nc(C3CCCCC3)sc2n1 7.18%
CCOC(=O)c1ccc2c(c1)N(Cc1cc(C)ccc1C)C(=O)c1ccccc1S2(=O)=O -28.3%
Cc1cc(C)cc(NC(=O)[C@H]2O[C@@H]3OC(C)(C)O[C@@H]3[C@H]3OC(C)(C)O[C@H]32)c1 -5.88%
CCc1ccccc1Nc1sc(C(=O)c2ccccc2)c(N)c1S(=O)(=O)c1ccccc1 -28.7%
CCCCN(CC)C(=O)CSc1nc2c(sc3ccccc32)c(=O)n1CCc1ccccc1 -8.65%
CN(C)C(=O)c1ccc(S(=O)(=O)NCc2ccc(Cl)cc2)s1 -23.2%
CCc1ccccc1NC(=O)Cn1c(=O)n(-c2ccc(C)cc2)c(=O)c2cc(OC)c(OC)cc21 -6.87%
O=C(O)/C=C/c1ccc(Cn2ccnc2)cc1 -7.77%
CCN(CCCNC(=O)Cn1ncc2c([nH]c3ccccc32)c1=O)c1cccc(C)c1 -20.1%
O=C(NO)c1ccccc1 -16.5% [at 116 µM, percent change from vehicle, -100% = no light]
COC(=O)c1scc(-c2ccc(C)cc2)c1S(=O)(=O)N1CCN(c2cccc(Cl)c2)CC1 -23.9%
CC(=O)N1CCc2c(sc3c2c(=O)n(-c2ccccc2C)c(=O)n3CC(=O)Nc2ccccc2)C1 -16.4%
Cc1ccc(S(=O)(=O)c2nc(-c3cccs3)oc2N2CCC(C)CC2)cc1 -19.8%
Cn1c(=O)sc2cc(NS(=O)(=O)c3ccc(C(C)(C)C)cc3)ccc21 16.7%
Cc1c(C(=O)Nc2c(F)cccc2F)sc2ncn(Cc3ccccc3F)c(=O)c12 -20.4%
COc1ccc(C(=O)NCc2cn3ccc(C)cc3n2)cc1 -11.6%
